Data published in paper PMC7733951.
These are yes or no findings as the source states them, for the method shown. Some binding calls cover weakened binding; strength is not graded here. Sequences can lack the tags named with a protein.

B1: FtsL (cya^T18-ftsL fusion from pUT18C-ftsL) (protein, UniProt P0AEN4 1-121)
chain: MISRVTEALSKVKGSMGSHERHALPGVIGDDLLRFGKLPLCLFICIILTAVTVVTTAHHTRLLTAQREQLVLERDALDIEWRNLILEENALGDHSRVERIATEKLQMQHVDPSQENIVVQK
B2: FtsL^L24K/I28K/E88K/G92D (T18 fusion) (protein, UniProt P0AEN4 1-121)
chain: MISRVTEALSKVKGSMGSHERHAKPGVKGDDLLRFGKLPLCLFICIILTAVTVVTTAHHTRLLTAQREQLVLERDALDIEWRNLILEKNALDDHSRVERIATEKLQMQHVDPSQENIVVQK
B3: FtsL^Δ1-30 carrying the two activation mutations E88K and G92D (T18 fusion) (domain or fragment, UniProt P0AEN4 30-121)
chain: DDLLRFGKLPLCLFICIILTAVTVVTTAHHTRLLTAQREQLVLERDALDIEWRNLILEKNALDDHSRVERIATEKLQMQHVDPSQENIVVQK
B4: FtsL^Δ1-30 (cya^T18-ftsL^30-121 fusion from pUT18C-ftsL^30-121) (domain or fragment, UniProt P0AEN4 30-121)
chain: DDLLRFGKLPLCLFICIILTAVTVVTTAHHTRLLTAQREQLVLERDALDIEWRNLILEENALGDHSRVERIATEKLQMQHVDPSQENIVVQK
B5: FtsL^Δ1-30 carrying E88K, G92D and the dominant negative mutation E87K (T18 fusion) (domain or fragment, UniProt P0AEN4 30-121)
chain: DDLLRFGKLPLCLFICIILTAVTVVTTAHHTRLLTAQREQLVLERDALDIEWRNLILKKNALDDHSRVERIATEKLQMQHVDPSQENIVVQK
B6: FtsL^L24K/I28K (T18 fusion) (protein, UniProt P0AEN4 1-121)
chain: MISRVTEALSKVKGSMGSHERHAKPGVKGDDLLRFGKLPLCLFICIILTAVTVVTTAHHTRLLTAQREQLVLERDALDIEWRNLILEENALGDHSRVERIATEKLQMQHVDPSQENIVVQK

How the values were obtained:
[1] = target: T1, FtsI (cya^T25-ftsI fusion from pKT25-ftsI) (E. coli) (UniProt P0AD68); assay: two-hybrid; bacterial two-hybrid (BACTH) in E. coli cya strain DHM1; ftsL alleles in pUT18C (T18), ftsW, ftsI or ftsQ in pKT25 (T25); three transformants spotted on LB plates with X-Gal and 0.5 mM IPTG, colour recorded after overnight incubation
T1 sequence: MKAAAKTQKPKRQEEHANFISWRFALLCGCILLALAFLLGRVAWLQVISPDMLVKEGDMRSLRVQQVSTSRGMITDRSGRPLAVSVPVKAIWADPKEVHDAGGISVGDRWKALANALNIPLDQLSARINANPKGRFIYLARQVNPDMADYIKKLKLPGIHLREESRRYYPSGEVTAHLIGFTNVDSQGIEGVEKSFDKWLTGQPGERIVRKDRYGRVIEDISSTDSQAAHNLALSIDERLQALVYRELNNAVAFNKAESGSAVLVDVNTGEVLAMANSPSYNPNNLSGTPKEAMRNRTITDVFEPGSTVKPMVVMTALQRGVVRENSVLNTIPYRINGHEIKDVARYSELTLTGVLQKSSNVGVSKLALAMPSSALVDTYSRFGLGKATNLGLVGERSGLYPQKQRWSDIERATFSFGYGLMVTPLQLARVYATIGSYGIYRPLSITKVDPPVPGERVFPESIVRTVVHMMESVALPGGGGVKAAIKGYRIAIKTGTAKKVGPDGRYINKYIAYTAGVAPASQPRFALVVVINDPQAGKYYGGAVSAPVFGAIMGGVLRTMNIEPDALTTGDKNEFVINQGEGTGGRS

[2] = target: T2, FtsW (cya^T25-ftsW fusion from pKT25-ftsW) (E. coli) (UniProt P0ABG4); assay: as above
T2 sequence: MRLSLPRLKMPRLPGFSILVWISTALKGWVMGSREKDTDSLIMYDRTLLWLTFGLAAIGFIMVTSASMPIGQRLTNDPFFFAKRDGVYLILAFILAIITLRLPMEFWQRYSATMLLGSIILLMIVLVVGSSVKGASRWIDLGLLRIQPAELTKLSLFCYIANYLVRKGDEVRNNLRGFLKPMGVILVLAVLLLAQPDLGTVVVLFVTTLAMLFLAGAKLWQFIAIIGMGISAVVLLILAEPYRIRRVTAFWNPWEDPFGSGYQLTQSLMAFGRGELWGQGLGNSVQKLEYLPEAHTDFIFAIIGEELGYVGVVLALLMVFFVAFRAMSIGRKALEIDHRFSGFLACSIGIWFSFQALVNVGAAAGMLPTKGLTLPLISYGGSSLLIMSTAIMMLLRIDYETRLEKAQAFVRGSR

| Binder | binding [1] | binding [2] |
| --- | --- | --- |
| B1 | binds | binds |
| B2 | binds | binds weakly |
| B3 | binds | binds weakly |
| B4 | no binding | no binding |
| B5 | no binding | no binding |
| B6 | no binding | no binding |
